Measurements reported in PubChem BioAssay AID485360 (National Center for Advancing Translational Sciences (NCATS), 2010).
The campaign covered roughly 230,000 compounds. About 1,500 (0.65%) were called active. This list was built around the results that the source calls inconclusive (neither active nor inactive); the mix of calls is not that of the screen. Calls follow the shape of the dose curve; as a rule, active = well fitted inhibition curve with a large enough effect; inconclusive = small, poorly fitted or top-dose-only effect; inactive = no such curve, though single readings can be large or run the other way. Potencies of inconclusive entries are doubtful fits and often do not repeat.

These compounds were tested against Lethal(3)malignant brain tumor-like protein 1 (Homo sapiens) (UniProt Q9Y468) (assay: qHTS Assay for the Inhibitors of L3MBTL1). Conditions: AlphaScreen L3MBTL1–H3K9me1 peptide binding; activity, negative = inhibition: at 57.1 µM (top of the series).
In short: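 L3MBTL1 50 nM + b-AHA-H3(1-15)K9me1 75 nM, 30 min RT; compound added, 30 min RT; streptavidin donor/Ni-chelate acceptor beads 10 ug/mL each final, 30 min RT dark; AlphaScreen read.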
% is scaled to controls: 0 for no effect and ±100 for the full control effect; potency is read from the fitted curve at half-maximal effect; tags tell the direction and shape of the fitted curve.
Also: nearly all actives have a fitted effect of over 60% in size.

Sequence of UniProt Q9Y468 (Q9Y468 whole entry, looked up): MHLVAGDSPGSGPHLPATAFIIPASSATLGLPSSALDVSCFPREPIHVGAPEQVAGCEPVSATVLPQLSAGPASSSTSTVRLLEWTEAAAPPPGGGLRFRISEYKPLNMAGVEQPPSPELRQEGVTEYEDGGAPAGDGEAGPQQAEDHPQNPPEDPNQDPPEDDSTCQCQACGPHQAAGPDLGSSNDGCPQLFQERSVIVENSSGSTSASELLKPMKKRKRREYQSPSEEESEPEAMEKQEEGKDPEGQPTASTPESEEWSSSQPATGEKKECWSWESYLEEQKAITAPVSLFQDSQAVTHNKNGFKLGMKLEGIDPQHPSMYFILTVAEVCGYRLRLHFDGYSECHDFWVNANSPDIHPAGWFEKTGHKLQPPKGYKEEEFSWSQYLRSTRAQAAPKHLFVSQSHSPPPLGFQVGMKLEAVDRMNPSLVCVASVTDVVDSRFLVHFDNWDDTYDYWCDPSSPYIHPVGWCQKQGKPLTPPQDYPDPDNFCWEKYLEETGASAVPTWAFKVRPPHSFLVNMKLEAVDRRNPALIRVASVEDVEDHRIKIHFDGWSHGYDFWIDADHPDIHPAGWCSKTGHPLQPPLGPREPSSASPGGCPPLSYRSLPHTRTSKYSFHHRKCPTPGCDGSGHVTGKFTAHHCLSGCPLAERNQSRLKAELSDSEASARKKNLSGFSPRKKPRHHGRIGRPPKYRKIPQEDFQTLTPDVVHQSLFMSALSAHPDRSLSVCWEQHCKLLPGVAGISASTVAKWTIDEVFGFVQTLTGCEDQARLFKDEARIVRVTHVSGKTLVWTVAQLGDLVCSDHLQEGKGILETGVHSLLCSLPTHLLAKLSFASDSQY

SMILES | activity, negative = inhibition | Potency
COc1ccccc1C(=O)Nc1ccc(-c2nnn(CC(=O)N3CCN(C(=O)c4ccco4)CC3)n2)cc1 | inactive: -17.1% | 
Cn1c(N)c(C(=O)COC(=O)C2CC(=O)N(Cc3ccccc3)C2)c(=O)n(C)c1=O (configuration not stated) |  | inconclusive: 0.158 µM [inhibitor, full curve, poor fit]
CCc1nnc(NC(=O)CN2CCN(c3ccccc3OC)CC2)s1 | inactive: 3.34% | 
C#CCOCCOCCOCCNc1nc(N2CCN(C(=O)[C@H](CCCCN)n3cc([C@@H](N)C(C)CC)nn3)CC2)nc(N2CCN(C(=O)[C@H](CCCCN)n3cc([C@@H](N)CO)nn3)CC2)n1 (some centres not stated) |  | inconclusive: 17.8 µM [inhibitor, single point]
CC(=O)c1ccc(C#CC(C)(C)O)s1 |  | inconclusive: 6.31 µM [inhibitor, single point]
COc1ccc(N=Nc2cc(-c3ccccc3)ccc2O)cc1 |  | inconclusive: 15.8 µM [inhibitor, partial curve]
O=C(CN1CCN(c2ccc(O)cc2)CC1)Nc1cc(S(=O)(=O)N2CCOCC2)ccc1Cl |  | inconclusive: 39.8 µM [inhibitor, single point]
CCc1cc(=O)oc2cc(C)c(CN3CCCC(C)C3)c(O)c12 (configuration not stated) |  | active: 11.2 µM
Cc1ccc(C(=O)NC(=S)/C=C2\N(C)c3ccccc3C2(C)C)cc1 |  | inconclusive: 22.4 µM [inhibitor, partial curve]
COc1cc(/C=C2\C(C)=C(C#N)c3nc(N)c(C#N)c(C)c32)ccc1OCC(=O)O |  | inconclusive: 25.1 µM [inhibitor, single point]
N#Cc1ccccc1N1CCN(C(=O)c2ccc(NC(=O)c3ccc(Br)o3)cc2)CC1 |  | inconclusive: 35.5 µM [inhibitor, single point]
Cc1c(NC(=O)Cn2cc([N+](=O)[O-])cn2)c(=O)n(-c2ccccc2)n1C |  | inconclusive: 0.112 µM [inhibitor, partial curve, poor fit]
CCC(=O)c1ccc(OCC(=O)N2CCN(S(=O)(=O)c3ccc(Cl)s3)CC2)cc1 |  | inconclusive: 39.8 µM [inhibitor, single point]
CC(=O)Nc1ccc(C=NNc2ccc(S(=O)(=O)Nc3ccccc3C(=O)O)cc2[N+](=O)[O-])cc1 |  | inconclusive: 14.1 µM [inhibitor, single point]
CC1=CC(C)(C)NC(=S)N1c1cccc2cc(S(=O)(=O)O)ccc12 |  | inconclusive: 35.5 µM [inhibitor, single point]
Cc1ccc(-c2cc(C(=O)Nc3nccs3)c3ccccc3n2)c(C)c1 |  | inconclusive: 5.62 µM [inhibitor, single point]
O=C(NC1CCCCC1)C(c1cccs1)N(C(=O)c1ccco1)c1ccc2c(c1)OCCO2 (configuration not stated) |  | inconclusive: 7.08 µM [inhibitor, single point]
Oc1ccc(/C=N/N=C(c2ccccc2)c2ccccc2)c(O)c1O |  | active: 3.55 µM
c1ccc(CNc2ccc3ccccc3n2)nc1 | inactive: -3.91% | 
c1cncc(N=c2scc(-c3cccc4ccccc34)n2CCCn2ccnc2)c1 |  | inconclusive: 39.8 µM [inhibitor, single point]
O=c1c2ccccc2nc(N/N=C/c2c(O)ccc3ccccc23)n1O |  | inconclusive: 31.6 µM [inhibitor, single point]

SMILES | activity, negative = inhibition | Potency
COC(=O)c1ccc2nc(NC(=O)COC(=O)CSc3nc(C)cc(C)n3)sc2c1 | inactive: 2.79% | 
CN(C)S(=O)(=O)N1CCN(C(=O)N(c2ccccc2)c2ccccc2)CC1 |  | inconclusive: 39.8 µM [inhibitor, single point]
Oc1cc(NCc2ccc(F)cc2)cc2cccnc12 |  | inactive
O=C(COC(=O)c1ccc2ncsc2c1)NC(=O)c1ccccc1 | inactive: -6.26% | 
O=C(N/N=C/c1cn[nH]c1-c1ccc(Cl)cc1)c1ccc([N+](=O)[O-])cc1 |  | inconclusive: 17.8 µM [inhibitor, partial curve]
c1ccc(CN2CCC(N=C3NN=C(c4ccc5c(c4)OCCO5)CS3)CC2)cc1 |  | inconclusive: 20 µM [inhibitor, single point]
Brc1ccc(CSc2nccn2-c2ccccc2)cc1 |  | inconclusive: 14.1 µM [inhibitor, partial curve]
Cc1cc([N+](=O)[O-])cnc1Sc1nccn1C | inactive: 7.23% | 
CC(C(=O)Nc1cc([N+](=O)[O-])ccc1Cl)N1CCN(c2ccc(O)cc2)CC1 (configuration not stated) |  | inconclusive: 28.2 µM [inhibitor, partial curve]
Cc1cc(C)cc(NC(=O)Nc2ccc(N3CCCCC3)cc2)c1 |  | inconclusive: 2.51 µM [inhibitor, full curve, poor fit]
Cc1noc(C)c1COc1cccc(C(=O)OCC(=O)NC(=O)c2ccc(OC(F)F)cc2)c1 |  | inconclusive: 0.708 µM [inhibitor, single point]
Cc1ccc(NC(=O)c2ccncc2)cc1S(=O)(=O)N(C)C |  | inconclusive: 39.8 µM [inhibitor, single point]
CC(Sc1nnc(-c2cccnc2)o1)C(=O)NC1CCCC1 (configuration not stated) | inactive: 2.35% | 
CCN1CCN(CC(O)COc2ccc(C(C)=O)cc2)CC1 (configuration not stated) | inactive: 1.02% | 
C(=N\Nc1nc(Nc2ccccc2)nc(N2CCCCC2)n1)/c1ccco1 |  | inconclusive: 15.8 µM [inhibitor, partial curve]
Cc1cc(NC(=O)CSc2nnc(-c3ccccc3)o2)no1 |  | inconclusive: 28.2 µM [inhibitor, single point]
Cc1c(C(=O)Nc2ccccc2[N+](=O)[O-])csc1-c1ccccc1 |  | inconclusive: 10 µM [inhibitor, partial curve]
COc1cc2c(cc1NCc1ccc3c(c1)OCO3)oc1ccccc12 |  | inconclusive: 17.8 µM [inhibitor, partial curve]
O=C(Nc1ccc(Cl)cn1)Nc1ccccc1F |  | inconclusive: 25.1 µM [inhibitor, single point]
COc1ccc(C2NCCc3c2[nH]c2ccccc32)cc1CSc1nc2ccccc2s1 (configuration not stated) | inactive: -13.9% | 
Cc1ccc(CSc2nnc(SCC(=O)N/N=C/C=C/c3ccco3)s2)cc1 |  | inconclusive: 31.6 µM [inhibitor, single point]
